This note sets out measurements from PubChem BioAssay AID1240 (Sanford-Burnham Center for Chemical Genomics, 2008).

Each structure is given as a SMILES string. The campaign covered roughly 50,000 compounds. About 800 (1.6%) showed an effect of 50% or more. This is one part of the list.

In the assay the target is Bcl-2-like protein 10 (Homo sapiens) (UniProt Q9HD36). Description: TR3 peptide-Bcl-B binding displacers, biochemical primary FP assay, phenotype converters (AID 1240).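 Also: 0% = Bcl-B with tracer peptide and DMSO and 100% = tracer peptide lacking Bcl-B.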 As to conditions: GST-Bcl-B / FITC-TR3 peptide fluorescence polarization; stronger effect = higher value; compound at 3.75 mg/L. (Polarisation of emitted light reports the rotation of a fluorescent probe.)
Sequence of UniProt Q9HD36 (Q9HD36 whole entry, looked up): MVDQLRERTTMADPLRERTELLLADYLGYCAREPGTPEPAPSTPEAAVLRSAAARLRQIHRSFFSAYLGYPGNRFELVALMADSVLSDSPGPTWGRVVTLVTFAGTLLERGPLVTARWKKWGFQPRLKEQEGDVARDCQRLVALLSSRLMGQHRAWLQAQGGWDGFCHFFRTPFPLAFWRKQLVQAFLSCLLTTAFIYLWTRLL
Turning to `C=CCc1cccc(/C=N/Nc2nc(-c3cc4cc(OC)ccc4oc3=O)cs2)c1O`, the displacement is -17.5%.
On to `O=C(O)CCC(=O)N(CCc1ccccc1)C1CC(=O)N(c2ccc(Cl)cc2)C1=O` (stereo unspecified), for which the displacement is -5.5%.
As for `Nc1nonc1-c1nc2ccccc2n1CC(=O)Nc1ccc(F)cc1F`, the figure is -1.9%; as for `O=C1C2C3C=CC(C2C(=O)N1C1CCCCC1)C1C(=O)N(C2CCCCC2)C(=O)C31` (stereo unspecified), -6%; as for `Fc1ccc(C2=NCCn3cccc32)cc1`, 1.2%.
On to `Cc1cc(C)c2nc3s/c(=C\c4ccc(-c5ccccc5C(=O)O)o4)c(=O)n3c2c1`, for which the displacement was -16%.
Take `O=C(Cn1cc(/C=C2/C(=O)NC(=O)N(c3cccc(F)c3)C2=O)c2ccccc21)Nc1ccccc1`: the displacement was determined as 116%.
The figure for `COc1ccc(C(=O)N2CCN(C3CCCC3)CC2)cc1OC` is -4.6%.
As to `C/C(O)=C(/C(=O)Nc1ccccc1[N+](=O)[O-])c1ccccc1`, the displacement stood at 10.4%.
The figure for `COc1ccc(CNC(=O)c2ccc(Cl)cc2)cc1` is -7.3%; for `CCOc1ccc(C(=O)Nc2cccc(NC(=O)c3ccc(F)cc3)c2)cc1` it is 13.3%; for `Cc1cc(C)nc(SCC(=O)N/N=C/c2c(Cl)cccc2Cl)n1` it is 13.3%.
With `CC(COCCc1nnc(NC(=O)c2ccccc2)s1)OCCc1nnc(NC(=O)c2ccccc2)s1` (stereo unspecified), the displacement was determined as 15.5%.
Consider `COc1ccc(/C=C(\NC(=O)c2ccccc2)C(=O)NN)c(OC)c1`, for which the displacement was -11.2%.
As for `Cc1ccc(/C=C2\SC(=Nc3ccc(F)cc3)NC2=O)o1`, the figure is 101%; as for `O=C1S/C(=C\c2cccc(Cl)c2Cl)C(=O)N1c1ccccc1`, 9.6%.
Consider `CCCC(=O)N1CCN(c2cc(N3CCCCC3)c(F)cc2[N+](=O)[O-])CC1`, for which the displacement is -12%.
In the case of `COc1ccccc1CNC(=O)C(=O)Nc1cccc(Cl)c1`, the displacement came to 5.2%.
Take `CC(NC(=O)OC(C)(C)C)C(=O)Oc1cc2oc(=O)cc(-c3ccccc3)c2cc1Cl` (stereo unspecified): the displacement was -0.9%.
Take `CCCN1C(=O)/C(=C2\SC(=S)N(CCC(=O)O)C2=O)c2ccccc21`: the displacement worked out at 5.3%.
Take `Cc1sc(NC(=O)COc2ccc(Cl)cc2Cl)c(C#N)c1C`: the displacement was -21.8%.
For `COc1ccc(NC(=O)c2c(-c3c(Cl)cccc3Cl)noc2C)c([N+](=O)[O-])c1`, the displacement stood at 11.5%.
As to `CC(=O)Nc1ccc(N2C(=O)/C(=C/c3ccc([N+](=O)[O-])cc3)C=C2c2ccccc2)cc1`, the displacement turned out to be 13.7%.
As for `Fc1ccc(OCCn2ccnc2)cc1`, the figure is 3.4%.
As for `COCCN1C(=O)C(=O)/C(=C(/O)c2ccccc2)C1c1ccc(OC)cc1` (stereo unspecified), the figure is -5.6%; as for `O=C1NC(=O)N(c2cccc(Br)c2)C(=O)/C1=C/c1ccc(Oc2ccc([N+](=O)[O-])cn2)cc1`, 11.7%.
Regarding `Cc1ccccc1C(=O)Nc1ccc([N+](=O)[O-])cn1`, the displacement was determined as 8.3%.
As for `C=CCN1C(=O)NC(=O)/C(=C\c2ccccc2OCc2ccc([N+](=O)[O-])cc2)C1=O`, the figure is 9.4%.
With `Cc1nn(S(=O)(=O)c2ccccc2[N+](=O)[O-])c(C)c1Sc1ccc([N+](=O)[O-])cc1`, the displacement was found to be 2.5%.
For `O=C(NCCNc1ccc(Cl)cc1[N+](=O)[O-])C(c1ccccc1)c1ccccc1`, the displacement is -35.2%.
As to `CCC(C)c1ccccc1OCCn1cc(/C=C2/SC(=S)NC2=O)c2ccccc21` (stereo unspecified), the displacement was 128%.
As for `O=C(Nc1ccc(Cl)c(-c2nc3ccccc3[nH]2)c1)c1cc2ccccc2o1`, the figure is -16%.
The figure for `COc1ccc(C2NC(=O)NC(C)=C2C(=O)Nc2ccc(Cl)cc2)c(OC)c1` (stereo unspecified) is -5.3%; for `N/C(=N\OC(=O)c1cccc(F)c1)c1cccnc1` it is 0.7%; for `CN(CCN(C)/N=C/c1cc([N+](=O)[O-])ccc1O)/N=C/c1cc([N+](=O)[O-])ccc1O` it is 8%.
As for `CN(C)c1ccc(C(=O)c2ccccc2C(=O)O)c(O)c1`, the figure is 11%.
As to `O=C(O)c1c(-c2ccccc2)oc2ccc(OCc3ccccc3)cc12`, the displacement amounted to 5.4%.
As for `COc1ccc(C(=O)NNC(=O)c2cccc(C(=O)NNC(=O)c3ccc(OC)c(OC)c3)c2)cc1OC`, the figure is 3.3%; as for `CCOC(=O)c1c(NC(=O)c2ccc3c(c2)OCO3)sc(C(=O)Nc2ccccc2F)c1C`, 6%.
The figure for `CCOC(=O)c1c(NC(=O)C2C3CCC(O3)C2C(=O)O)sc2c1CCC(CC)C2` (stereo unspecified) is 3%; for `CC1=C(C(=O)OC(C)C)C(c2ccc(C)c([N+](=O)[O-])c2)C2=C(CCCC2=O)N1` (stereo unspecified) it is -5.2%.
For the compound `C=CCc1c(C)nc2cc(-c3ccc(I)cc3)[nH]n2c1=O`, the displacement was -7.4%.
For `O=C(c1ccc([N+](=O)[O-])cc1)N1CCN(C2CC3CCC2C3)CC1` (stereo unspecified), the displacement is -12%.
For the compound `O=C(Cc1ccccc1)NC(NC(=O)Cc1ccccc1)c1cccc([N+](=O)[O-])c1`, the displacement was 3.5%.
As for `CCOC(=O)c1c(N)sc(C(=O)N2CCCC2)c1C`, the figure is 5.9%; as for `COc1ccc(-c2nn(-c3ccccc3)cc2/C=c2\sc3nc(-c4ccc(Cl)cc4)nn3c2=O)cc1`, 21.9%; as for `N/C(=N\OC(=O)COc1ccc(Br)cc1)c1ccc(Cl)cc1`, 1.8%.
With `CCc1c(C)c2ccc(OCC(=O)c3ccccc3)cc2oc1=O`, the displacement is -0.3%.
For the compound `Cc1ccc(NC2C=CS(=O)(=O)C2)cc1C` (stereo unspecified), the displacement was 6.7%.
Turning to `CCOC(=O)c1ccc(N2NC(=O)/C(=C/c3cccc(I)c3)C2=O)cc1`, the displacement came to 13%.
As to `Cc1cccc(C)c1NC(=O)COc1ccc2ccccc2c1`, the displacement was -2.5%.
As to `CCOc1ccc(C(=O)COC(=O)c2ccccc2I)cc1`, the displacement was -1.1%.
As for `CC1CCCN(c2c([N+](=O)[O-])c(=O)oc3ccccc23)C1` (stereo unspecified), the figure is 14.7%; as for `Nc1nc2nonc2nc1Nc1ccccc1`, 4.9%; as for `O=C(NN1CCOCC1)c1ccc(-c2ccccc2)cc1`, 5.1%.
The figure for `Cc1ccccc1OCC(=O)Nc1ccc(Nc2ccccc2)cc1` is 1.1%; for `CCOC(=O)c1ccc(NC(=O)c2ccc([N+](=O)[O-])cc2Cl)cc1` it is -10%; for `Cc1ccc(C(O)(C(=O)N=c2ccccn2O)c2ccc(C)cc2)cc1` it is -31.7%.
Take `O=C(Nc1ccccn1)c1cc(-c2ccccc2)nc2ccccc12`: the displacement is -2.3%.
For the compound `Cc1ccc(OCC(=O)Nc2ccc(Cl)c(Cl)c2)c(Br)c1`, the displacement was 10.6%.
`c1csc(-c2csc(-c3nc(-c4cccs4)cs3)n2)c1`: the displacement is -6.1%.
Turning to `CC1=NN(c2ccc(C(=O)O)cc2)C(=O)/C1=C\c1ccco1`, the displacement was -8.7%.
The figure for `O=C(COc1ccccc1)NC1CCCCCCC1` is -6.5%; for `Cc1onc(-c2c(F)cccc2Cl)c1C(=O)N(C)C1CCS(=O)(=O)C1` (stereo unspecified) it is 0.5%.
On to `O=C(NNC(=S)Nc1ccccc1)c1cc(-c2ccccc2)nc2ccccc12`, for which the displacement is -20.9%.
In the case of `Cn1c(COc2ccc(Cl)cc2)n[nH]c1=S`, the displacement was -12.6%.
